# From the supplement of paper PMC8728848
# The other results are listed elsewhere or left out.
# B1: HPL (Tachypleus tridentatus) (protein)
# chain: MEDDCTCVTDRSLEGKLMKHPSTPAVYQILDGCRRLVPNPPTYNNIYKNWECIQSNILEKLLCKCDSLSNGAELIKGSGDTVYLLSNGVKRPIADPETFNGFCFDWNKIKTYSDIVINSLSTGPIIIIKHHHHHH
# Columns and labels:
# Test in all cases: glycan array binding signal (z-score within array); higher = stronger binding
# Conditions in all cases: glycan notation: IUPAC condensed, linker removed
# GlcNAc(b1-3)Gal(b1-4)Glc = molecular target: GlcNAc(b1-3)Gal(b1-4)Glc
# Summary of the method: (§1)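 From the Consortium for Functional Glycomics database, 3228 arrays were curated, keeping only those whose protein sequence was available. Binding is given as a within-array Z-score averaged across arrays sharing a protein sequence and across linkers. Negative Z-scores can be read as non-binding.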
# [1] = molecular target: GlcNAc(b1-3)Gal(b1-4)GlcNAc
# Summary of the method: as §1
# [2] = molecular target: GlcNAc(b1-3)Gal(b1-4)GlcNAc(b1-2)Man(a1-3)[GlcNAc(b1-3)Gal(b1-4)GlcNAc(b1-2)Man(a1-6)]Man(b1-4)GlcNAc(b1-4)GlcNAc
# Summary of the method: as §1
# [3] = molecular target: GlcNAc(b1-3)Gal(b1-4)GlcNAc(b1-2)Man(a1-3)[GlcNAc(b1-3)Gal(b1-4)GlcNAc(b1-2)Man(a1-6)]Man(b1-4)GlcNAc(b1-4)[Fuc(a1-6)]GlcNAc
# Summary of the method: as §1
# [4] = molecular target: GlcNAc(b1-3)Gal(b1-4)GlcNAc(b1-2)[GlcNAc(b1-3)Gal(b1-4)GlcNAc(b1-6)]Man(a1-6)[GlcNAc(b1-3)Gal(b1-4)GlcNAc(b1-2)Man(a1-3)]Man(b1-4)GlcNAc(b1-4)GlcNAc
# Summary of the method: as §1
# [5] = molecular target: GlcNAc(b1-3)Gal(b1-4)GlcNAc(b1-3)Gal(b1-4)GlcNAc
# Summary of the method: as §1
# [6] = molecular target: GlcNAc(b1-3)Gal(b1-4)GlcNAc(b1-3)Gal(b1-4)GlcNAc(b1-2)Man(a1-3)[GlcNAc(b1-3)Gal(b1-4)GlcNAc(b1-3)Gal(b1-4)GlcNAc(b1-2)Man(a1-6)]Man(b1-4)GlcNAc(b1-4)GlcNAc
# Summary of the method: as §1
# [7] = molecular target: GlcNAc(b1-3)Gal(b1-4)GlcNAc(b1-3)Gal(b1-4)GlcNAc(b1-2)Man(a1-3)[GlcNAc(b1-3)Gal(b1-4)GlcNAc(b1-3)Gal(b1-4)GlcNAc(b1-2)Man(a1-6)]Man(b1-4)GlcNAc(b1-4)[Fuc(a1-6)]GlcNAc
# Summary of the method: as §1
# [8] = molecular target: GlcNAc(b1-3)Gal(b1-4)GlcNAc(b1-3)Gal(b1-4)GlcNAc(b1-2)[GlcNAc(b1-3)Gal(b1-4)GlcNAc(b1-3)Gal(b1-4)GlcNAc(b1-6)]Man(a1-6)[GlcNAc(b1-3)Gal(b1-4)GlcNAc(b1-3)Gal(b1-4)GlcNAc(b1-2)Man(a1-3)]Man(b1-4)GlcNAc(b1-4)[Fuc(a1-6)]GlcNAc
# Summary of the method: as §1
# [9] = molecular target: GlcNAc(b1-3)Gal(b1-4)GlcNAc(b1-3)Gal(b1-4)GlcNAc(b1-3)Gal(b1-4)GlcNAc(b1-2)Man(a1-3)[GlcNAc(b1-3)Gal(b1-4)GlcNAc(b1-3)Gal(b1-4)GlcNAc(b1-3)Gal(b1-4)GlcNAc(b1-2)Man(a1-6)]Man(b1-4)GlcNAc(b1-4)GlcNAc
# Summary of the method: as §1
# [10] = molecular target: GlcNAc(b1-3)Gal(b1-4)GlcNAc(b1-3)Gal(b1-4)GlcNAc(b1-3)Gal(b1-4)GlcNAc(b1-2)Man(a1-3)[GlcNAc(b1-3)Gal(b1-4)GlcNAc(b1-3)Gal(b1-4)GlcNAc(b1-3)Gal(b1-4)GlcNAc(b1-2)Man(a1-6)]Man(b1-4)GlcNAc(b1-4)[Fuc(a1-6)]GlcNAc
# Summary of the method: as §1
# [11] = molecular target: GlcNAc(b1-3)Gal(b1-4)GlcNAc(b1-3)Gal(b1-4)GlcNAc(b1-3)Gal(b1-4)GlcNAc(b1-2)[GlcNAc(b1-3)Gal(b1-4)GlcNAc(b1-3)Gal(b1-4)GlcNAc(b1-3)Gal(b1-4)GlcNAc(b1-6)]Man(a1-6)[GlcNAc(b1-3)Gal(b1-4)GlcNAc(b1-3)Gal(b1-4)GlcNAc(b1-3)Gal(b1-4)GlcNAc(b1-2)Man(a1-3)]Man(b1-4)GlcNAc(b1-4)[Fuc(a1-6)]GlcNAc
# Summary of the method: as §1
# [12] = molecular target: GlcNAc(b1-3)Gal(b1-4)GlcNAc(b1-3)Gal(b1-4)GlcNAc(b1-3)Gal(b1-4)GlcNAc(b1-3)Gal(b1-4)GlcNAc(b1-2)Man(a1-3)[GlcNAc(b1-3)Gal(b1-4)GlcNAc(b1-3)Gal(b1-4)GlcNAc(b1-3)Gal(b1-4)GlcNAc(b1-3)Gal(b1-4)GlcNAc(b1-2)Man(a1-6)]Man(b1-4)GlcNAc(b1-4)GlcNAc
# Summary of the method: as §1
# [13] = molecular target: GlcNAc(b1-3)Gal(b1-4)GlcNAc(b1-3)Gal(b1-4)GlcNAc(b1-3)Gal(b1-4)GlcNAc(b1-3)Gal(b1-4)GlcNAc(b1-2)Man(a1-3)[GlcNAc(b1-3)Gal(b1-4)GlcNAc(b1-3)Gal(b1-4)GlcNAc(b1-3)Gal(b1-4)GlcNAc(b1-3)Gal(b1-4)GlcNAc(b1-2)Man(a1-6)]Man(b1-4)GlcNAc(b1-4)[Fuc(a1-6)]GlcNAc
# Summary of the method: as §1
# [14] = molecular target: GlcNAc(b1-3)Gal(b1-4)GlcNAc(b1-3)Gal(b1-4)GlcNAc(b1-3)Gal(b1-4)GlcNAc(b1-3)Gal(b1-4)GlcNAc(b1-2)[GlcNAc(b1-3)Gal(b1-4)GlcNAc(b1-3)Gal(b1-4)GlcNAc(b1-3)Gal(b1-4)GlcNAc(b1-3)Gal(b1-4)GlcNAc(b1-6)]Man(a1-6)[GlcNAc(b1-3)Gal(b1-4)GlcNAc(b1-3)Gal(b1-4)GlcNAc(b1-3)Gal(b1-4)GlcNAc(b1-3)Gal(b1-4)GlcNAc(b1-2)Man(a1-3)]Man(b1-4)GlcNAc(b1-4)[Fuc(a1-6)]GlcNAc
# Summary of the method: as §1
# [15] = molecular target: GlcNAc(b1-3)Gal(b1-4)GlcNAc(b1-3)Gal(b1-4)GlcNAc(b1-3)GalNAc
# Summary of the method: as §1
# [16] = molecular target: GlcNAc(b1-3)Gal(b1-4)GlcNAc(b1-3)GalNAc
# Summary of the method: as §1
# [17] = molecular target: GlcNAc(b1-3)Gal(b1-4)GlcNAc(b1-3)[GlcNAc(b1-3)Gal(b1-4)GlcNAc(b1-3)]GalNAc
# Summary of the method: as §1
# [18] = molecular target: GlcNAc(b1-3)Gal(b1-4)GlcNAc(b1-6)[Gal(b1-3)]GalNAc
# Summary of the method: as §1
# [19] = molecular target: GlcNAc(b1-3)Gal(b1-4)GlcNAc(b1-6)[GlcNAc(b1-3)Gal(b1-3)]GalNAc
# Summary of the method: as §1
# [20] = molecular target: GlcNAc(b1-3)Gal(b1-4)GlcNAc(b1-6)[GlcNAc(b1-3)]Gal(b1-4)GlcNAc
# Summary of the method: as §1
# GlcNAc(b1-3)GalNAc = molecular target: GlcNAc(b1-3)GalNAc
# Summary of the method: as §1
# GlcNAc(b1-3)Man = molecular target: GlcNAc(b1-3)Man
# Summary of the method: as §1
# [21] = molecular target: GlcNAc(b1-3)[GlcNAc(b1-4)][GlcNAc(b1-6)]GlcNAc
# Summary of the method: as §1
# [22] = molecular target: GlcNAc(b1-3)[GlcNAc(b1-6)]Gal(b1-4)GlcNAc
# Summary of the method: as §1
# [23] = molecular target: GlcNAc(b1-3)[GlcNAc(b1-6)]GalNAc
# Summary of the method: as §1
# [24] = molecular target: GlcNAc(b1-4)Gal(b1-4)GlcNAc
# Summary of the method: as §1
# GlcNAc(b1-4)GlcNAc = molecular target: GlcNAc(b1-4)GlcNAc
# Summary of the method: as §1
# [25] = molecular target: GlcNAc(b1-4)GlcNAc(b1-4)GlcNAc
# Summary of the method: as §1
# [26] = molecular target: GlcNAc(b1-4)GlcNAc(b1-4)GlcNAc(b1-4)GlcNAc(b1-4)GlcNAc
# Summary of the method: as §1
# [27] = molecular target: GlcNAc(b1-4)GlcNAc(b1-4)GlcNAc(b1-4)GlcNAc(b1-4)GlcNAc(b1-4)GlcNAc
# Summary of the method: as §1
# [28] = molecular target: GlcNAc(b1-4)[GlcNAc(b1-6)]GalNAc
# Summary of the method: as §1
# [29] = molecular target: GlcNAc(b1-6)Gal(b1-4)GlcNAc
# Summary of the method: as §1
# GlcNAc(b1-6)GalNAc = molecular target: GlcNAc(b1-6)GalNAc
# Summary of the method: as §1
# [30] = molecular target: GlcNAc6S(b1-3)Gal(b1-4)GlcNAc
# Summary of the method: as §1
# Kdn(a2-3)Gal(b1-3)GalNAc = molecular target: Kdn(a2-3)Gal(b1-3)GalNAc
# Summary of the method: as §1
# Kdn(a2-3)Gal(b1-3)GlcNAc = molecular target: Kdn(a2-3)Gal(b1-3)GlcNAc
# Summary of the method: as §1
# Kdn(a2-3)Gal(b1-4)Glc = molecular target: Kdn(a2-3)Gal(b1-4)Glc
# Summary of the method: as §1
# Kdn(a2-3)Gal(b1-4)GlcNAc = molecular target: Kdn(a2-3)Gal(b1-4)GlcNAc
# Summary of the method: as §1
# [31] = molecular target: Kdn(a2-3)Gal(b1-4)[Fuc(a1-3)]GlcNAc
# Summary of the method: as §1
# Kdn(a2-6)Gal(b1-4)GlcNAc = molecular target: Kdn(a2-6)Gal(b1-4)GlcNAc
# Summary of the method: as §1
# [32] = molecular target: Man(a1-2)Man(a1-2)Man(a1-3)Man
# Summary of the method: as §1
# [33] = molecular target: Man(a1-2)Man(a1-2)Man(a1-6)[Man(a1-3)]Man
# Summary of the method: as §1
# Man(a1-2)Man(a1-3)Man = molecular target: Man(a1-2)Man(a1-3)Man
# Summary of the method: as §1
# [34] = molecular target: Man(a1-2)Man(a1-3)[Man(a1-2)Man(a1-6)]Man
# Summary of the method: as §1
binder,measurement,setting,value
B1,glycan array binding signal (z-score),GlcNAc(b1-3)Gal(b1-4)Glc,-0.293
same,glycan array binding signal (z-score),[1],-0.294
same,glycan array binding signal (z-score),[2],0.011
same,glycan array binding signal (z-score),[3],0.104
same,glycan array binding signal (z-score),[4],0.395
same,glycan array binding signal (z-score),[5],-0.199
same,glycan array binding signal (z-score),[6],0.175
same,glycan array binding signal (z-score),[7],0.119
same,glycan array binding signal (z-score),[8],-0.19
same,glycan array binding signal (z-score),[9],-0.2
same,glycan array binding signal (z-score),[10],0.124
same,glycan array binding signal (z-score),[11],-0.068
same,glycan array binding signal (z-score),[12],0.291
same,glycan array binding signal (z-score),[13],0.072
same,glycan array binding signal (z-score),[14],-0.187
same,glycan array binding signal (z-score),[15],-0.251
same,glycan array binding signal (z-score),[16],-0.253
same,glycan array binding signal (z-score),[17],-0.153
same,glycan array binding signal (z-score),[18],-0.176
same,glycan array binding signal (z-score),[19],-0.089
same,glycan array binding signal (z-score),[20],-0.339
same,glycan array binding signal (z-score),GlcNAc(b1-3)GalNAc,-0.228
same,glycan array binding signal (z-score),GlcNAc(b1-3)Man,0.24
same,glycan array binding signal (z-score),[21],-0.296
same,glycan array binding signal (z-score),[22],-0.288
same,glycan array binding signal (z-score),[23],-0.304
same,glycan array binding signal (z-score),[24],-0.298
same,glycan array binding signal (z-score),GlcNAc(b1-4)GlcNAc,-0.144
same,glycan array binding signal (z-score),[25],-0.174
same,glycan array binding signal (z-score),[26],0.534
same,glycan array binding signal (z-score),[27],-0.084
same,glycan array binding signal (z-score),[28],-0.382
same,glycan array binding signal (z-score),[29],-0.224
same,glycan array binding signal (z-score),GlcNAc(b1-6)GalNAc,-0.188
same,glycan array binding signal (z-score),[30],-0.343
same,glycan array binding signal (z-score),Kdn(a2-3)Gal(b1-3)GalNAc,0.271
same,glycan array binding signal (z-score),Kdn(a2-3)Gal(b1-3)GlcNAc,-0.274
same,glycan array binding signal (z-score),Kdn(a2-3)Gal(b1-4)Glc,1
same,glycan array binding signal (z-score),Kdn(a2-3)Gal(b1-4)GlcNAc,-0.185
same,glycan array binding signal (z-score),[31],0.123
same,glycan array binding signal (z-score),Kdn(a2-6)Gal(b1-4)GlcNAc,-0.279
same,glycan array binding signal (z-score),[32],-0.291
same,glycan array binding signal (z-score),[33],-0.201
same,glycan array binding signal (z-score),Man(a1-2)Man(a1-3)Man,-0.385
same,glycan array binding signal (z-score),[34],-0.302
